{
  "source": "PubChem BioAssay (Tox21)",
  "note": "“And” between values parts separate entries of the source, which are not always exact repeats. Equal values may be shown once. Inconclusive means that the source gave no clear call. Such entries were picked first, then a sample of the others. Where the call is inconclusive, the potency comes from a doubtful curve fit. The source made the active and inactive calls. The call rests on the fitted dose curve; in most records, active means well fitted inhibition curve with a large enough effect in the repeat runs; inconclusive means weak or mixed curves; inactive means no such curve, though single readings can be large or run the other way. On the % scale 0 is the no-effect control and ±100 the full control effect; potency means the concentration at half of the fitted maximal effect; tags describe the fitted curve by direction and shape.",
  "data": [
    {"biological_target": "Cytochrome P450 1A2 (Homo sapiens) (UniProt P05177)", "sequence (P05177 whole entry, looked up)": "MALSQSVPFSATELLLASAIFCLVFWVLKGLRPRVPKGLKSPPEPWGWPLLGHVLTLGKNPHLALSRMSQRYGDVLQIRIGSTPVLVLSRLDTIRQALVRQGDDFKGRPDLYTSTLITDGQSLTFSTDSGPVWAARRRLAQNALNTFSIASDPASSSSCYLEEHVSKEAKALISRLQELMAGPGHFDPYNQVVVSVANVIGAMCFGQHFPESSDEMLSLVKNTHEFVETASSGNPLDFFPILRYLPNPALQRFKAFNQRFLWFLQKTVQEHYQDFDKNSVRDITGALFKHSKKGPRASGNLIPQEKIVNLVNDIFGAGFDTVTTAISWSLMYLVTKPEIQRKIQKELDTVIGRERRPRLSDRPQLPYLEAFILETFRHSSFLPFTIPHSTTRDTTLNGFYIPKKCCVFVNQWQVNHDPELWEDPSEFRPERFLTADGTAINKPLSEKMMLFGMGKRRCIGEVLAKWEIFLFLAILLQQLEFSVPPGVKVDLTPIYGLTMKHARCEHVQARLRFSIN", "assay": "Cytochrome P450 Family 1 Subfamily A Member 2 (CYP1A2) small molecule antagonists: luciferase reporter qHTS assay (AID 1671199); further: nearly all actives have a fitted effect of over 50% in size", "details": "P450-Glo CYP1A2 enzyme, luciferin luminescence, 1 h; series mostly up to 115 µM", "outline": "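Read-out is luminescence from luciferin detection reagent (20 min) proportional to CYP1A2 activity; compounds in DMSO preincubated 10 min with enzyme and proluciferin substrate, then NADPH regeneration solution, 1 h, room temperature.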", "values": [
      {"smiles": "CC(C)[C@@H]1CC[C@@H](C)C[C@H]1O", "Potency": "inactive and inconclusive: 82.2 µM [inhibitor, partial curve, poor fit]"},
      {"smiles": "CC(C)C1=CC2=CC[C@@H]3[C@](C)(CCC[C@@]3(C)C(=O)O)[C@H]2CC1", "Potency": "inconclusive: 56.4 µM [inhibitor, partial curve, poor fit]"},
      {"smiles": "O=[N+]([O-])c1ccc(Cl)cc1Cl", "Potency": "inconclusive: 39.4 µM [inhibitor, partial curve]"},
      {"smiles": "O=C1OC(=O)c2cc([N+](=O)[O-])ccc21", "Potency": "inconclusive: 63.1 µM [inhibitor, partial curve]"},
      {"smiles": "O=c1[nH]c(=O)c2[nH]c(=O)[nH]c2[nH]1", "activity change, negative = inhibition": "inactive: -28.5% [at 10.5 µM]"},
      {"smiles": "O=C(O)CCCc1c[nH]c2ccccc12", "Potency": "inactive"},
      {"smiles": "OC1CCC(C2CCCCC2)CC1", "note": "(stereo not given)", "Potency": "active: 35.6 µM"},
      {"smiles": "CCCOC(=O)c1ccccc1", "Potency": "inconclusive: 25.2 µM [inhibitor, full curve] and inactive"},
      {"smiles": "CC(C)OC(=O)c1ccccc1C(=O)OC(C)C", "Potency": "active: 3.56 µM"},
      {"smiles": "C=CCCCCCCCCCC", "Potency": "inconclusive: 62.8 µM [inhibitor, partial curve, poor fit]"},
      {"smiles": "CCCCCCCCCCCCCCCCCCOCC(O)CO", "note": "(stereo not given)", "Potency": "inconclusive: 27.5 µM [inhibitor, partial curve, poor fit]"},
      {"smiles": "O=C(O)CNC(=O)c1ccccc1", "Potency": "inactive"},
      {"smiles": "C=CCn1cc[n+](C)c1", "Potency": "inconclusive: 32.1 µM [inhibitor, partial curve]"},
      {"smiles": "C[Si](NC1CCCCC1)(NC1CCCCC1)NC1CCCCC1", "Potency": "inconclusive: 39.9 µM [inhibitor, partial curve]"},
      {"smiles": "CS(=O)(=O)c1ccc([C@@H](O)[C@@H](CO)NC(=O)C(Cl)Cl)cc1", "Potency": "inconclusive: 64.1 µM [inhibitor, partial curve]"},
      {"smiles": "Cc1cnc(C)c(C)n1", "Potency": "inconclusive: 46.9 µM [inhibitor, partial curve, poor fit]"},
      {"smiles": "C=CCOC(=O)C(=C)C", "Potency": "inconclusive: 39.9 µM [inhibitor, partial curve]"},
      {"smiles": "COCc1c(C(C)C)nc(C(C)C)c(/C=C/[C@@H](O)C[C@@H](O)CC(=O)O)c1-c1ccc(F)cc1", "Potency": "inconclusive: 39.5 µM [inhibitor, partial curve, poor fit]"},
      {"smiles": "NC(=O)c1ccccc1[N+](=O)[O-]", "Potency": "inconclusive: 64.9 µM [inhibitor]"},
      {"smiles": "Nc1ccc(C(=O)O)c(O)c1", "Potency": "inactive"},
      {"smiles": "CN(CCOc1ccc(CC2SC(=O)NC2=O)cc1)c1ccccn1", "note": "(stereo not given)", "Potency": "inconclusive: 70.6 µM [inhibitor, partial curve, poor fit]"},
      {"smiles": "CC(CO)(CO)CO", "Potency": "inconclusive: 40.5 µM [inhibitor, partial curve, poor fit]"},
      {"smiles": "CC1=CC[C@@]23C[C@@H]1C(C)(C)[C@@H]2CC[C@H]3C", "Potency": "inconclusive: 39.9 µM [inhibitor, partial curve]"},
      {"smiles": "O=C1C(c2[nH]c3ccc(S(=O)(=O)O)cc3c2O)=Nc2ccc(S(=O)(=O)O)cc21", "Potency": "inconclusive: 56.4 µM [inhibitor, partial curve, poor fit]"},
      {"smiles": "CC(C)(CO)[C@@H](O)C(=O)NCCCO", "Potency": "inactive"},
      {"smiles": "Cc1ccc2c(c1)CCCN2", "Potency": "active: 3.17 µM"},
      {"smiles": "Nc1nc(F)nc2c1ncn2[C@@H]1O[C@H](CO)[C@@H](O)[C@@H]1O", "Potency": "inactive"},
      {"smiles": "Fc1ccccc1[C@@H](F)COC1CCC(Nc2ncnc3[nH]ncc23)CC1", "note": "(stereo not given in full)", "Potency": "inactive"},
      {"smiles": "Cc1cccc2sc(N)nc12", "Potency": "active: 18.1 µM"},
      {"smiles": "CC(C)(C)NCC(O)COc1ccccc1OCC1CCCO1", "note": "(stereo not given)", "Potency": "inactive"},
      {"smiles": "CCCCN(CCCC)C(C(N)=O)c1ccc(OC)cc1", "note": "(stereo not given)", "Potency": "inconclusive: 38.9 µM [inhibitor, single point]"},
      {"smiles": "O=S(=O)(O)c1ccccc1O", "Potency": "inactive"},
      {"smiles": "CCOc1ccc(NC(=O)CC(C)O)cc1", "note": "(stereo not given)", "Potency": "inconclusive: 32.1 µM [inhibitor, partial curve] and inconclusive: 39.9 µM [inhibitor, partial curve] and inconclusive: 14.4 µM [inhibitor, full curve, poor fit]"},
      {"smiles": "CC(C)[C@@H]1CC[C@@H](C)CC1=O", "Potency": "inconclusive: 20 µM [inhibitor, partial curve, poor fit]"},
      {"smiles": "Nc1ccc(Cl)c(N)c1", "Potency": "active: 40 µM and active: 35.6 µM"}
    ]}
  ]
}
